# Measurements taken from PubChem BioAssay AID1347073 (National Center for Advancing Translational Sciences (NCATS), 2019).
# Screen size: about 45,000 compounds; about 200 (0.44%) were called active. Not shown: some 7% with an inconclusive outcome. Calls come from the whole dose curve; as a rule, active = well fitted activation curve with a large enough effect; inconclusive = small, poorly fitted or top-dose-only effect; inactive = no such curve, though single readings can be large or run the other way. This is one part of the list.
# Assay: qHTS of TDP-43 Inhibitors: NCGC Sytravon Library Screen; note: 0% is about no effect; nearly all actives have a fitted effect of over 55% in size
# Conditions: yeast TDP-43 toxicity rescue, BacTiter-Glo growth, 24 h; series mostly up to 46.1 µM; growth rescue (activation): at the top concentration
# Method in brief: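 TDP-43-expressing yeast, pregrown in raffinose, seeded at OD600 0.02 in galactose medium with compound for 24 hr at 30 deg C. Growth read by BacTiter-Glo luminescence, so rescue of toxicity appears as activation.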
row,Compound,growth rescue (activation)
1,O=C1COc2ccc(C(=O)COC(=O)c3cnc(Cl)c(Cl)c3)cc2N1,inactive: 7.82%
2,CCn1c(=S)[nH]c2cc(S(=O)(=O)N3CCOCC3)ccc21,inactive: 7.94%
3,CN(CCc1ccccn1)C(=O)CCC1CCCN(Cc2ccccc2OC(F)F)C1 (centres undefined),inactive: 1.51%
4,CC(=O)C1=C(O)C(=O)OC1c1ccc(Cl)cc1 (centres undefined),inactive: -24.9%
5,Cc1ccc(C)c(S(=O)(=O)NC(Cc2c[nH]c3ccccc23)C(=O)O)c1 (centres undefined),inactive: -11.8%
6,CNC(=O)CO/N=C/c1ccc(N(C)C)cc1,inactive: 4.1%
7,O=C(c1cccs1)N1CCCC(c2nc3c(nnn3Cc3cccc(Cl)c3)c(=O)[nH]2)C1 (centres undefined),inactive: 17.5%
8,COc1ccc(N(CC(=O)NCCc2ccccc2)C(=O)c2csnn2)cc1,inactive: -1.69%
9,CCNc1nc(NCC)nc(OCCNS(=O)(=O)c2ccccc2)n1,inactive: 28.1%
10,Cn1nc(-c2ccc(N3CCOCC3)c(NS(=O)(=O)c3ccc(Cl)cc3)c2)c2ccccc2c1=O,inactive: 11.4%
11,c1ccc(OCCOc2cccc3cccnc23)cc1,inactive: 15.8%
12,O=C(CCC(=O)c1cccs1)NNC(=O)c1cc(Cl)ccc1Cl,inactive: 15%
13,O=[N+]([O-])c1cccc(-c2nc3ccc([N+](=O)[O-])cc3[nH]2)c1,inactive: 0.527%
14,CCCOc1ccc(-c2nc[nH]c2[N+](=O)[O-])cc1,inactive: 7.62%
15,CC(C)C(=O)N1CCC1(C)C(=O)Nc1ccccc1OC(F)F (centres undefined),inactive: 4.09%
16,CCCCCN(C(=O)NC(=O)Nc1ccccc1C)S(=O)(=O)c1ccccc1,inactive: 8.48%
17,COc1ccc(C(=O)N2CCC(C)(C(=O)NS(=O)(=O)C3CC3)C2)cc1F (centres undefined),inactive: -16.3%
18,Cc1cc(C)nc(N/N=C/c2c[nH]c3ccccc23)n1,inactive: 11.9%
19,CN1CCCC(C)(C(=O)Nc2cccc(Oc3ccccc3)c2)C1 (centres undefined),inactive: -4.37%
20,COc1ccc(C2=NN(C(=O)CCC(=O)O)C(c3ccc(Br)cc3)C2)cc1 (centres undefined),inactive: 3.59%
21,Cc1cccc(C)c1NC(=O)CCS(=O)(=O)c1cccc2nonc12,inactive: 10.1%
22,O=C(CCCN1C(=O)/C(=C/c2cccs2)SC1=S)NNC(=O)c1ccc(F)cc1,inactive: 11.6%
23,Cc1ccc(N/C=C(\C#N)S(=O)(=O)c2ccccc2)cc1,inactive: 2.84%
24,Cc1cc(=O)oc2cc(OCC(=O)OCC(=O)N(C)C3CCS(=O)(=O)C3)ccc12 (centres undefined),inactive: 0.908%
25,CCN1CCN(c2nc(-c3ccccc3)nc3ccccc23)CC1,inactive: 14.8%
26,N#Cc1c(SCC(=O)Nc2ccccc2)nsc1SCC(=O)Nc1ccccc1,inactive: 13.4%

row,Compound,growth rescue (activation)
1,COc1cccc(NC(=O)N2CCN(C(=O)c3nsc4ccccc34)CC2)c1,inactive: 22.5%
2,Cc1[nH]c(=O)c(C#N)c(C)c1CCC(=O)N(C)CC(=O)Nc1ccc(Cl)c(Cl)c1,inactive: 4.99%
3,C#Cc1ccc(NC(=O)C2(C)CCN2C(=O)c2cc(C)n(C)n2)cc1 (centres undefined),inactive: 16%
4,CCN(CC)C(=O)CSc1nc2ccsc2c(=O)n1CCCC(=O)NCCc1ccc(S(N)(=O)=O)cc1,inactive: -4.66%
5,CC1(C(=O)NCCc2ccccc2)Cc2c(-c3ccc(C(N)=O)cc3)ccnc2O1 (centres undefined),inactive: 2.92%
6,O=c1[nH]ncn1-c1ccccc1,inactive: 7.28%
7,OC(c1ccc(Cl)c(F)c1)c1ncc(-c2ccccc2C(F)(F)F)[nH]1 (centres undefined),inactive: 12.4%
8,CCCCOc1ccc(/C=C/C(=O)Nc2ccc([N+](=O)[O-])cc2C)cc1,inactive: 34.6%
9,COc1cc(NC(=S)NCCCN2CCOCC2)c(OC)cc1Cl,inactive: -0.636%
10,Cn1c(=O)n(C)c2cc([N+](=O)[O-])c(N3CCN(C(=O)c4ccccc4Br)CC3)cc21,inactive: 7.33%
11,CCC1(CC)NC(=O)N(CC(=O)Nc2ccc(OCc3ccccc3)cc2)C1=O,inactive: 9.56%
12,COc1ccc(-c2nc(C#N)c(NCc3ccc(F)cc3)o2)cc1OC,inactive: -0.253%
13,Cc1ccc2cccc(OCc3cccc([N+](=O)[O-])c3)c2n1,inactive: 19.3%
14,CCOc1ccc(NC(=O)CCn2ccnc2)cc1,inactive: 1.65%
15,S=c1[nH]nc(COc2ccccc2)n1/N=C/c1ccco1,inactive: 25.6%
16,Cc1cc(=O)[nH]c(NCCO)n1,inactive: 1.72%
17,O=C(O)c1ccccc1/C=N/NC(=S)NCc1ccccc1,inactive: 3.19%
18,CCN1CCC(C(=O)NC(c2ccc(F)cc2)c2ncccc2C)CC1 (centres undefined),inactive: -3.33%
19,COCCCNC(=O)CC1C(=O)N(Cc2ccccc2)C(C)c2nc3ccccc3n21 (centres undefined),inactive: 2.47%
20,CCN1CCN(c2nc(-c3ccc(F)cc3)cc(=O)[nH]2)CC1,inactive: 12.5%
21,O=c1[nH]c(Cc2cccs2)nc2scc(-c3ccc(Cl)cc3)c12,inactive: 36.7%
22,O=C(Nc1ccccc1)Nc1nc(-c2ccc(F)cc2)cs1,inactive: 2.93%
23,COc1ccc(NC(=O)c2ccccc2NC(=O)CSc2ccccc2)cc1,inactive: 1.24%
24,CN(C(=O)COC(=O)c1cc(F)c(F)cc1Cl)c1ccccc1,inactive: 19.5%
25,Cc1c(C(=O)OCC(=O)N2CCCC2)cccc1[N+](=O)[O-],inactive: -5.06%
26,COc1cc(CNC(=O)c2cc(-c3ccc(F)cc3C)n[nH]2)cc(OC)c1,inactive: 1.61%

row,Compound,growth rescue (activation)
1,O=C(COC(=O)/C=C/c1ccc(F)cc1)NC1CCS(=O)(=O)C1 (centres undefined),inactive: 16.2%
2,O=C1CC(c2ccco2)CC(O)=C1C=Nc1ccccc1-c1ccccc1 (centres undefined),inactive: 9.67%
3,OC(CN1CCCC(C(F)(F)F)C1)c1ccccc1 (centres undefined),inactive: -3.17%
4,O=C(COC(=O)CNC(=O)c1ccccc1F)NC1CC1,inactive: -19.4%
5,CN1CCN(S(=O)(=O)c2ccc(NC(=O)c3ccccc3Cl)cc2)CC1,inactive: 0.926%
6,CC(=O)Nc1ccc(S(=O)(=O)Nc2nc3ccccc3nc2Nc2ccc(C(=O)O)c(O)c2)cc1,inactive: 2.7%
7,O=C(Nc1ccc(NC(=O)c2cccs2)cc1)c1cccs1,inactive: 0.303%
8,O=C(c1cc(-c2ccncc2)nc2ccccc12)N1CCOCC1,inactive: -2.91%
9,CC(C)C(c1nnnn1C1CCCCC1)N1CCN(C(=O)c2ccco2)CC1 (centres undefined),inactive: 12.7%
10,Cc1ccc(S(=O)(=O)Nc2ccccc2CNC2CCCCC2)cc1,inactive: -5.67%
11,COc1ccc(N(CC(=O)Nc2cccc(N(C)S(C)(=O)=O)c2)S(=O)(=O)c2ccccc2)cc1Cl,inactive: 1.69%
12,CCc1c(C(=O)Nc2ccc(C)c(C)c2)[nH]c(C)c1C(C)=O,inactive: 0.568%
13,COc1ccccc1N1CCN(C(=O)c2ccc(NS(=O)(=O)c3ccc(C)cc3)cc2)CC1,inactive: 8.1%
14,COC(C(=O)NNS(=O)(=O)c1ccc([N+](=O)[O-])cc1)c1ccccc1 (centres undefined),inactive: -11.6%
15,COc1ccc(NC(=O)c2sc3nc(Cc4ccccc4)cc(C(F)(F)F)c3c2N)cc1OC,inactive: 1.18%
16,CC(=O)Nc1ccc2nc(CN3CCC(CO)(CCc4ccccc4)CC3)ccc2c1,inactive: 24.8%
17,COc1ccc(NC(=O)CC2Nc3cccc4cccc(c34)NC2=O)cc1 (centres undefined),inactive: -11.4%
18,CCN1CCN(c2cc(C)c3cc(NC(=O)CCC(=O)N4CCN(c5ccccc5)CC4)ccc3n2)CC1,inactive: -0.395%
19,COCCNc1ncnc2c1ncn2[C@H]1CN(Cc2ccc3c(c2)OCO3)C[C@@H](CO)O1,inactive: 8.64%
20,COc1ccccc1C(=O)Nc1cccc(C(=O)N2CCOCC2)c1,inactive: 4.22%
21,CC(NC(=O)/C(C#N)=C1\N=C(NC(=O)c2ccco2)c2ccccc21)c1ccccc1 (centres undefined),inactive: 5.6%
22,CCOC(=O)c1ccc(NC(=O)CSc2nc(C)c(Cc3ccccc3)c(=O)[nH]2)cc1,inactive: 19.9%
23,O=C(Nc1ccc(Cl)c(C(F)(F)F)c1)C1Cc2c(-c3ccc4c(c3)OCO4)ccnc2O1 (centres undefined),inactive: 21.6%
24,O=C(CCC(=O)c1ccc(Br)cc1)Nc1ccc(F)cc1,inactive: 12.4%
25,CCOCCCNC(=S)N1CCN(Cc2ccco2)CC1,inactive: -2.72%
26,CCCNC(=S)N1CCC(C(=O)c2ccc3c(c2)OCCO3)CC1,inactive: 20.5%

row,Compound,growth rescue (activation)
1,COc1cccc(-c2cc(C(=O)Nc3ccc([N+](=O)[O-])cn3)c3ccccc3n2)c1,inactive: 23.4%
2,Cc1ccc(N(Cc2ccc(C(=O)NCC3CCCO3)cc2)S(C)(=O)=O)cc1C (centres undefined),inactive: 8.03%
3,Cc1cc(-c2nn(-c3ccccc3F)cc2CN2CCCC(C(N)=O)C2)c(C)s1 (centres undefined),inactive: 1.94%
4,CCc1cccc(CC)c1N(COC)C(=O)Cn1c(C)nc2ccccc21,inactive: -9.13%
5,CN(Cc1cccnc1)C(=O)c1cc(COc2ccc3c(c2)CCCC3)on1,inactive: 27%
6,O=C(Nc1ccc(F)c(Cl)c1)C1Cc2ccccc2CN1S(=O)(=O)c1ccc(F)cc1 (centres undefined),inactive: 13.5%
7,O=C(COC(=O)[C@@H]1CCCN1C(=O)c1cccs1)Nc1ccc(Br)cc1,inactive: 13.6%
8,O=C(CCc1nc2ccccc2c(=O)[nH]1)OCC(=O)c1ccc(C2CCCCC2)cc1,inactive: 15%
9,O=C(Cc1ccccc1)NCCN1CCCC1,inactive: 14.1%
10,CCOc1ccc(C2=Nc3ccc(Br)cc3C(c3ccc(N4CCOCC4)cc3)=NN2)cc1,inactive: 16.6%
11,CCOC(CNC(=O)c1ccc2c(c1)ncn2-c1cccc(F)c1)OCC,inactive: 1.16%
12,Cn1c(=O)c(=O)n(C)c2cc(S(=O)(=O)NCc3ccc(Cl)cc3)ccc21,inactive: -14%
13,CCOC(=O)C1(CCCc2ccccc2)CCN(C(=O)CCc2cnccn2)CC1,inactive: -3%
14,CCCN(CCC)C1CC(=O)N(Cc2ccccc2)C1=O (centres undefined),inactive: -91.8%
15,Cc1ccc2[nH]c(O)c(N=NC(=O)C(C)n3cnc4ccccc4c3=O)c2c1 (centres undefined),inactive: -5.33%
16,O=C1c2ccccc2-c2onc3c(N4CCN(CCO)CC4)cc(N4CCN(C(=O)c5ccco5)CC4)c1c23,inactive: -26.1%
17,Cc1c(C(=O)OCC(=O)NCc2ccc3c(c2)OCO3)cccc1[N+](=O)[O-],inactive: -16.2%
18,CCc1nc2ccc(C(=O)N3CCCCC3)cn2c1N(CCC(C)C)CCN(C)C,inactive: -10.7%
19,CC(=O)CC(C)(C)Nc1nc2ccc([N+](=O)[O-])cc2o1,inactive: 8.82%
20,COc1ccccc1Nc1nc(C)nc2c1oc1ccccc12,inactive: 10.1%
21,Cc1cc(=O)oc2cc(OCC(=O)OCC(=O)N(CCC#N)c3ccccc3)ccc12,inactive: 4.41%
22,CC1(C)CC(=O)C2=C(C1)Nc1[nH]c(=S)[nH]c(=O)c1C2c1ccccc1 (centres undefined),inactive: 5.36%
23,Cc1ccccc1Nc1c(-c2ccccc2O)nc2sccn12,inactive: 13.8%
24,Cc1c(C#N)c(O)n(CCO)c(=O)c1N=Nc1ccccc1,inactive: 3.06%
25,COc1ccc(CCN2C(=O)c3cccc4c(C(=O)N5CCCCC5)ccc(c34)C2=O)cc1OC,inactive: 10.3%
26,Cc1nnc(SCc2nnc(-c3cccs3)o2)n1C1CCCCC1,inactive: 0.404%
